Data published in a collection of fitness landscapes (doi:10.1016/j.celrep.2020.107928).
Whole data set: some 81,000 sequences, median “one-hybrid fitness for binding NBS DNA” near -0.1, cut for the highest 2% near 0.36. This is one part of the list.

B1: Caulobacter ParB omega fusion; a variant is named by its letters at X, in order, B8GW30 (parent)
chain: MESVVVGEPGMSEGRRGLGRGLSALLGEVDAAPAQAPGEQLGGSREAPIEILQRNPDQPRRTFREEDLEDLSNSIREKGVLQPILVRPSPDTAGEYQIVAGERAWRAAQRAGLKTVPIMVRELDDLAVLEIGIIENVQRADLNVLEEALSYKVLMEKFERTQENIAQTIGKSXSHVANXMRLLXLPDEVQSYLVSGELTAXHARAIAAAADPVALAKQIIEGGLSVRETEALARKAPNLSAGKSKGGRPPRVKDTDTQALESDLSSVLGLDVSIDHRGSTGTLTITYATLEQLDDLCNRLTRGI

Variants of: B1
Assay: one-hybrid fitness for binding NBS DNA (the Noc-binding site; scaled: cognate 1, non-cognate 0); higher = stronger binding
Details: with NBS DNA site
Procedure, shortened: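 Fitness here means the log change in variant-to-wild-type read ratio between plasmids sequenced before and after selection. That scale was set so cognate equals 1 and non-cognate equals 0. The selection was a bacterial one-hybrid screen of Caulobacter ParB libraries, four specificity codons randomised, in E. coli USO carrying a HIS3 reporter with the site 19 bp from the promoter, grown 48 hours at 37°C on M9-minus-histidine with 0.1 mM IPTG and 5 mM 3-AT.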

DALD and PHRR cannot be ordered by “one-hybrid fitness for binding NBS DNA” value: no more than 0.2 for the first, no more than 0.2 for the second.

HATS and YITY cannot be ordered by “one-hybrid fitness for binding NBS DNA” value: no more than 0.2 for the first, no more than 0.2 for the second.

KDCL and DTKM cannot be ordered by “one-hybrid fitness for binding NBS DNA” value: no more than 0.2 for the first, no more than 0.2 for the second.

KTPI and DLAW cannot be ordered by “one-hybrid fitness for binding NBS DNA” value: no more than 0.2 for the first, no more than 0.2 for the second.

WETT and DNTF cannot be ordered by “one-hybrid fitness for binding NBS DNA” value: no more than 0.2 for the first, no more than 0.2 for the second.

SMGN and YPTD cannot be ordered by “one-hybrid fitness for binding NBS DNA” value: no more than 0.2 for the first, no more than 0.2 for the second.

GADI and DTAS cannot be ordered by “one-hybrid fitness for binding NBS DNA” value: no more than 0.2 for the first, no more than 0.2 for the second.

HLSC and ADFR cannot be ordered by “one-hybrid fitness for binding NBS DNA” value: no more than 0.2 for the first, no more than 0.2 for the second.

Going from RRHY to NAIG, the “one-hybrid fitness for binding NBS DNA” value falls from 0.452 to no more than 0.2.

MVHC and LDDT cannot be ordered by “one-hybrid fitness for binding NBS DNA” value: no more than 0.2 for the first, no more than 0.2 for the second.

GVTY and NGRH cannot be ordered by “one-hybrid fitness for binding NBS DNA” value: no more than 0.2 for the first, no more than 0.2 for the second.

NRYG and SATG cannot be ordered by “one-hybrid fitness for binding NBS DNA” value: no more than 0.2 for the first, no more than 0.2 for the second.

NAWA and SGDS cannot be ordered by “one-hybrid fitness for binding NBS DNA” value: no more than 0.2 for the first, no more than 0.2 for the second.

LQRR and TSIF cannot be ordered by “one-hybrid fitness for binding NBS DNA” value: no more than 0.2 for the first, no more than 0.2 for the second.

GHPG and SKQC cannot be ordered by “one-hybrid fitness for binding NBS DNA” value: no more than 0.2 for the first, no more than 0.2 for the second.

ERKL and AIGA cannot be ordered by “one-hybrid fitness for binding NBS DNA” value: no more than 0.2 for the first, no more than 0.2 for the second.

ERLT and TWAI cannot be ordered by “one-hybrid fitness for binding NBS DNA” value: no more than 0.2 for the first, no more than 0.2 for the second.

HMMA and PLLP cannot be ordered by “one-hybrid fitness for binding NBS DNA” value: no more than 0.2 for the first, no more than 0.2 for the second.

RYDD and ISLR cannot be ordered by “one-hybrid fitness for binding NBS DNA” value: no more than 0.2 for the first, no more than 0.2 for the second.

EPTN and FQAG cannot be ordered by “one-hybrid fitness for binding NBS DNA” value: no more than 0.2 for the first, no more than 0.2 for the second.

FSSY and LCEP cannot be ordered by “one-hybrid fitness for binding NBS DNA” value: no more than 0.2 for the first, no more than 0.2 for the second.

DCYS and TLEW cannot be ordered by “one-hybrid fitness for binding NBS DNA” value: no more than 0.2 for the first, no more than 0.2 for the second.

AHTF and TFYT cannot be ordered by “one-hybrid fitness for binding NBS DNA” value: no more than 0.2 for the first, no more than 0.2 for the second.

DSCY and MCLY cannot be ordered by “one-hybrid fitness for binding NBS DNA” value: no more than 0.2 for the first, no more than 0.2 for the second.

KFRT and RYFC cannot be ordered by “one-hybrid fitness for binding NBS DNA” value: no more than 0.2 for the first, no more than 0.2 for the second.

KMQA and SPSN cannot be ordered by “one-hybrid fitness for binding NBS DNA” value: no more than 0.2 for the first, no more than 0.2 for the second.

SGQI and LAPM cannot be ordered by “one-hybrid fitness for binding NBS DNA” value: no more than 0.2 for the first, no more than 0.2 for the second.

TGTD and QSAC cannot be ordered by “one-hybrid fitness for binding NBS DNA” value: no more than 0.2 for the first, no more than 0.2 for the second.

FLMT and GTHT cannot be ordered by “one-hybrid fitness for binding NBS DNA” value: no more than 0.2 for the first, no more than 0.2 for the second.

YKSC and AADL cannot be ordered by “one-hybrid fitness for binding NBS DNA” value: no more than 0.2 for the first, no more than 0.2 for the second.

CYKS and DIHR cannot be ordered by “one-hybrid fitness for binding NBS DNA” value: no more than 0.2 for the first, no more than 0.2 for the second.

IYHR and WSMM cannot be ordered by “one-hybrid fitness for binding NBS DNA” value: no more than 0.2 for the first, no more than 0.2 for the second.

Going from RAHD to QSKK, the “one-hybrid fitness for binding NBS DNA” value rises from no more than 0.2 to 0.412.

QMIG and YWYV cannot be ordered by “one-hybrid fitness for binding NBS DNA” value: no more than 0.2 for the first, no more than 0.2 for the second.

CDTR and VLMS cannot be ordered by “one-hybrid fitness for binding NBS DNA” value: no more than 0.2 for the first, no more than 0.2 for the second.

PVKI and VWNC cannot be ordered by “one-hybrid fitness for binding NBS DNA” value: no more than 0.2 for the first, no more than 0.2 for the second.

Compared with VTKR, KGLV is lower in “one-hybrid fitness for binding NBS DNA” value: 0.31 for the first, no more than 0.2 for the second.

Going from QVQR to ASNV, the “one-hybrid fitness for binding NBS DNA” value falls from 0.368 to no more than 0.2.

ALHN and DHMG cannot be ordered by “one-hybrid fitness for binding NBS DNA” value: no more than 0.2 for the first, no more than 0.2 for the second.

ATEG and HIQT cannot be ordered by “one-hybrid fitness for binding NBS DNA” value: no more than 0.2 for the first, no more than 0.2 for the second.

First: YATG
Second: QRVG
The “one-hybrid fitness for binding NBS DNA” value of the first is lower: no more than 0.2 for the first, 0.232 for the second.

SIGL and RGCC cannot be ordered by “one-hybrid fitness for binding NBS DNA” value: no more than 0.2 for the first, no more than 0.2 for the second.

KKVI and ESWT cannot be ordered by “one-hybrid fitness for binding NBS DNA” value: no more than 0.2 for the first, no more than 0.2 for the second.

KDST and TNNT cannot be ordered by “one-hybrid fitness for binding NBS DNA” value: no more than 0.2 for the first, no more than 0.2 for the second.

RILG and WQHS cannot be ordered by “one-hybrid fitness for binding NBS DNA” value: no more than 0.2 for the first, no more than 0.2 for the second.

GNWP and HISS cannot be ordered by “one-hybrid fitness for binding NBS DNA” value: no more than 0.2 for the first, no more than 0.2 for the second.

LFFG and YFHC cannot be ordered by “one-hybrid fitness for binding NBS DNA” value: no more than 0.2 for the first, no more than 0.2 for the second.

DIVV and MWKR cannot be ordered by “one-hybrid fitness for binding NBS DNA” value: no more than 0.2 for the first, no more than 0.2 for the second.

DVPP and ALID cannot be ordered by “one-hybrid fitness for binding NBS DNA” value: no more than 0.2 for the first, no more than 0.2 for the second.

MKKY and RCHW cannot be ordered by “one-hybrid fitness for binding NBS DNA” value: no more than 0.2 for the first, no more than 0.2 for the second.

LSFF and ISTT cannot be ordered by “one-hybrid fitness for binding NBS DNA” value: no more than 0.2 for the first, no more than 0.2 for the second.

LRAL and AVQD cannot be ordered by “one-hybrid fitness for binding NBS DNA” value: no more than 0.2 for the first, no more than 0.2 for the second.

IQNS and CQRC cannot be ordered by “one-hybrid fitness for binding NBS DNA” value: no more than 0.2 for the first, no more than 0.2 for the second.

Going from NAYC to RHAT, the “one-hybrid fitness for binding NBS DNA” value rises from no more than 0.2 to 0.432.

PLNC and EVYC cannot be ordered by “one-hybrid fitness for binding NBS DNA” value: no more than 0.2 for the first, no more than 0.2 for the second.

EKVT and RPES cannot be ordered by “one-hybrid fitness for binding NBS DNA” value: no more than 0.2 for the first, no more than 0.2 for the second.

GNYQ and VCRE cannot be ordered by “one-hybrid fitness for binding NBS DNA” value: no more than 0.2 for the first, no more than 0.2 for the second.

RSHC and LCNR cannot be ordered by “one-hybrid fitness for binding NBS DNA” value: no more than 0.2 for the first, no more than 0.2 for the second.

MQMS and AAFP cannot be ordered by “one-hybrid fitness for binding NBS DNA” value: no more than 0.2 for the first, no more than 0.2 for the second.

PMGG and HNSE cannot be ordered by “one-hybrid fitness for binding NBS DNA” value: no more than 0.2 for the first, no more than 0.2 for the second.

Compared with IRGR, YEHS is lower in “one-hybrid fitness for binding NBS DNA” value: 0.305 for the first, no more than 0.2 for the second.

ASGT and HKIE cannot be ordered by “one-hybrid fitness for binding NBS DNA” value: no more than 0.2 for the first, no more than 0.2 for the second.

EACL and FGMF cannot be ordered by “one-hybrid fitness for binding NBS DNA” value: no more than 0.2 for the first, no more than 0.2 for the second.

RSGV and KFNG cannot be ordered by “one-hybrid fitness for binding NBS DNA” value: no more than 0.2 for the first, no more than 0.2 for the second.

CSIV and GFNP cannot be ordered by “one-hybrid fitness for binding NBS DNA” value: no more than 0.2 for the first, no more than 0.2 for the second.

YMIS and LMGT cannot be ordered by “one-hybrid fitness for binding NBS DNA” value: no more than 0.2 for the first, no more than 0.2 for the second.

YTTT and SLYQ cannot be ordered by “one-hybrid fitness for binding NBS DNA” value: no more than 0.2 for the first, no more than 0.2 for the second.

AQMR and YYHR cannot be ordered by “one-hybrid fitness for binding NBS DNA” value: no more than 0.2 for the first, no more than 0.2 for the second.

PICL and CIGT cannot be ordered by “one-hybrid fitness for binding NBS DNA” value: no more than 0.2 for the first, no more than 0.2 for the second.

WDVG and SVHE cannot be ordered by “one-hybrid fitness for binding NBS DNA” value: no more than 0.2 for the first, no more than 0.2 for the second.

MQQT and RIGA cannot be ordered by “one-hybrid fitness for binding NBS DNA” value: no more than 0.2 for the first, no more than 0.2 for the second.

FRYS and QVKI cannot be ordered by “one-hybrid fitness for binding NBS DNA” value: no more than 0.2 for the first, no more than 0.2 for the second.

KLCT and LPWA cannot be ordered by “one-hybrid fitness for binding NBS DNA” value: no more than 0.2 for the first, no more than 0.2 for the second.

HHSI and LCIM cannot be ordered by “one-hybrid fitness for binding NBS DNA” value: no more than 0.2 for the first, no more than 0.2 for the second.

AYQF and NLED cannot be ordered by “one-hybrid fitness for binding NBS DNA” value: no more than 0.2 for the first, no more than 0.2 for the second.

IKQM and QYCV cannot be ordered by “one-hybrid fitness for binding NBS DNA” value: no more than 0.2 for the first, no more than 0.2 for the second.

In the case of SFMR, the “one-hybrid fitness for binding NBS DNA” value is reported as no more than 0.2.
